The other results are listed elsewhere or left out. At the low end of the ranking the order means little.

The target of this assay is GST-SBP-SLBP (stem-loop binding protein) (UniProt Q14493). Kind of assay: targeted RNA Bind-n-Seq.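 Further: DESeq read counts versus GST-SBP nonspecific binding control pulldown.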 To be noted: RBNS binding buffer: 25 mM Tris pH 7.5, 150 mM KCl, 3 mM MgCl2, 0.1% Tween, 0.5 mg/mL BSA, 1 mM DTT; 27 nM protein, 750 pM RNA pool; temperature not stated; high values mean tight binding.
In the case of “GGUCACGUCUCAAUCAACUCUACUUCCAGGGAAAGCCCUGGCAAUCUCAACAGCUCGCAGUCAAG”, the binding signal (log2 fold change) was -0.0196.
Regarding “GGUCACGUCUCAAUCAACUCUCUCGAGGGGGGGAAAACCCCUUUACCCUCAACUUCAACAGCUCGCAGUCAAG”, the binding signal (log2 fold change) was found to be 0.109.
With “GGUCACGUCUCAAUCAACUCAUUUUCAGGAGUUUUCUCCUGCAUACUCAACAGCUCGCAGUCAAG” the figure was 0.105; with “GGUCACGUCUCAAUCAACUCAUUUCCAGGAGUUUGCUCCUGUAUAUUCAACAGCUCGCAGUCAAG”, 0.0947.
With “GGUCACGUCUCAAUCAACUCUUUUCCAGGAGUUUCCUCCUGCUAUUUCAACAGCUCGCAGUCAAG” the figure was -0.202; with “GGUCACGUCUCAAUCAACUCAACUUCCAGGGAAAACCCUGGUAAUCUCAACAGCUCGCAGUCAAG”, -0.0477; with “GGUCACGUCUCAAUCAACUCUAACGAGGGGGGGAAAACCCCUUUACCCUCAACUUCAACAGCUCGCAGUCAAG”, 0.426.
With “GGUCACGUCUCAAUCAACUCAUCCCCCAGGGAAACCCCUGGCUUUUUCAACAGCUCGCAGUCAAG” the figure was -0.00181.
“GGUCACGUCUCAAUCAACUCUUCCUCCAGGGAAAGCCCUGGCAAACUCAACAGCUCGCAGUCAAG”: the binding signal (log2 fold change) is -0.165.
Then “GGUCACGUCUCAAUCAACUCUAUUCCAGGAGUUUCCUCCUGCUAACUCAACAGCUCGCAGUCAAG”, with 0.0967; and “GGUCACGUCUCAAUCAACUCUAUCUCAGGAGUUUCCUCCUGCAAUUUCAACAGCUCGCAGUCAAG”, with 0.0969; and “GGUCACGUCUCAAUCAACUCCCACGAGGGGGGGAAAACCCCUUUACCCUCUACUUCAACAGCUCGCAGUCAAG”, with -0.417.
Then “GGUCACGUCUCAAUCAACUCAUUUGCAGGAGUUUACUCCUGGUAUCUCAACAGCUCGCAGUCAAG”, with 0.00726; and “GGUCACGUCUCAAUCAACUCAACUCCCAGGGAAACCCCUGGUUAUUUCAACAGCUCGCAGUCAAG”, with 0.0645; and “GGUCACGUCUCAAUCAACUCCCUAGAGGGGGGGAAAACCCCUUUGCCCUCACAAUCAACAGCUCGCAGUCAAG”, with 0.17.
For the sequence “GGUCACGUCUCAAUCAACUCCAUAGAGGGGGGGAAAACCCCUUUACCCUCAUUAUCAACAGCUCGCAGUCAAG”, the binding signal (log2 fold change) was -0.378.
Turning to “GGUCACGUCUCAAUCAACUCCUCAGAGGGGGGGAAAACCCCUUUGCCCUCCACAUCAACAGCUCGCAGUCAAG”, the binding signal (log2 fold change) is -0.139.
With “GGUCACGUCUCAAUCAACUCUUCAGAGGGGGGGAAAACCCCUUUGCCCUCAACAUCAACAGCUCGCAGUCAAG” the figure was 0.0495; with “GGUCACGUCUCAAUCAACUCAUCUUCCAGGGAAAUCCCUGGCUAUCUCAACAGCUCGCAGUCAAG”, 0.276.
With “GGUCACGUCUCAAUCAACUCAUCCCCCAGGGAAACCCCUGGUUUUUUCAACAGCUCGCAGUCAAG” the figure was -0.246; with “GGUCACGUCUCAAUCAACUCUUCCCCCAGGGAAAACCCUGGUUUUUUCAACAGCUCGCAGUCAAG”, 0.00103.
Consider “GGUCACGUCUCAAUCAACUCUAUCUCAGGAGUUUUCUCCUGCAAUUUCAACAGCUCGCAGUCAAG”, for which the binding signal (log2 fold change) is -0.167.
With “GGUCACGUCUCAAUCAACUCAUCUUCAGGAGUUUUCUCCUGCUAUCUCAACAGCUCGCAGUCAAG” the figure was 0.0726; with “GGUCACGUCUCAAUCAACUCUUCCCCCAGGGAAAUCCCUGGUAUUCUCAACAGCUCGCAGUCAAG”, 0.0471; with “GGUCACGUCUCAAUCAACUCCUUAGAGGGGGGGAAAACCCCUUUACCCUCCAUGUCAACAGCUCGCAGUCAAG”, 0.16.
With “GGUCACGUCUCAAUCAACUCUAUUCCCAGGGAAAGCCCUGGUUAUUUCAACAGCUCGCAGUCAAG” the figure was -0.0302; with “GGUCACGUCUCAAUCAACUCCUACGAGGGGGGGAAAACCCCUUUACCCUCAAUUUCAACAGCUCGCAGUCAAG”, 0.14; with “GGUCACGUCUCAAUCAACUCAAUUCCAGGAGUUUUCUCCUGUAAACUCAACAGCUCGCAGUCAAG”, 0.105.
With “GGUCACGUCUCAAUCAACUCUUUUUCCAGGGAAAGCCCUGGCAUACUCAACAGCUCGCAGUCAAG” the figure was 0.136; with “GGUCACGUCUCAAUCAACUCUUUUUCCAGGGAAAGCCCUGGUAUACUCAACAGCUCGCAGUCAAG”, -0.0546; with “GGUCACGUCUCAAUCAACUCCCACGAGGGGGGGAAAACCCCUUUACCCUCAUAUUCAACAGCUCGCAGUCAAG”, -0.399.
As for “GGUCACGUCUCAAUCAACUCAAUCCCCAGGGAAAUCCCUGGCAAUCUCAACAGCUCGCAGUCAAG”, the binding signal (log2 fold change) was found to be 0.171.
As for “GGUCACGUCUCAAUCAACUCCUAUGAGGGGGGGAAAACCCCUUUACCCUCCAUUUCAACAGCUCGCAGUCAAG”, the binding signal (log2 fold change) was -0.098.
Turning to “GGUCACGUCUCAAUCAACUCCCUCGAGGGGGGGAAAACCCCUUUACCCUCUAUUUCAACAGCUCGCAGUCAAG”, the binding signal (log2 fold change) was determined as 0.254.
Then “GGUCACGUCUCAAUCAACUCAAUCUCCAGGGAAAACCCUGGUUAUCUCAACAGCUCGCAGUCAAG”, with 0.128; and “GGUCACGUCUCAAUCAACUCAAUCGCAGGAGUUUACUCCUGGUUUCUCAACAGCUCGCAGUCAAG”, with -0.0207.
Then “GGUCACGUCUCAAUCAACUCAUCCCCCAGGGAAAUCCCUGGCAAAUUCAACAGCUCGCAGUCAAG”, with 0.0484.
